Reference: the supplement of paper PMC3334620
Over roughly 33,000 sequences, “E-score (-0.5 to 0.5)” has its median near -0.035; the highest 2% begin near 0.34. The list shows a part of the results.

molecular target: T1, Mot3 (UniProt P54785); test: PBM E-score (8-mer binding enrichment) (E-score (-0.5 to 0.5)); higher = stronger / more preferred TF binding; most listed sequences are background and not binding sites; conditions: protein concentration: 200 nM; construct: GST-full length
T1 sequence: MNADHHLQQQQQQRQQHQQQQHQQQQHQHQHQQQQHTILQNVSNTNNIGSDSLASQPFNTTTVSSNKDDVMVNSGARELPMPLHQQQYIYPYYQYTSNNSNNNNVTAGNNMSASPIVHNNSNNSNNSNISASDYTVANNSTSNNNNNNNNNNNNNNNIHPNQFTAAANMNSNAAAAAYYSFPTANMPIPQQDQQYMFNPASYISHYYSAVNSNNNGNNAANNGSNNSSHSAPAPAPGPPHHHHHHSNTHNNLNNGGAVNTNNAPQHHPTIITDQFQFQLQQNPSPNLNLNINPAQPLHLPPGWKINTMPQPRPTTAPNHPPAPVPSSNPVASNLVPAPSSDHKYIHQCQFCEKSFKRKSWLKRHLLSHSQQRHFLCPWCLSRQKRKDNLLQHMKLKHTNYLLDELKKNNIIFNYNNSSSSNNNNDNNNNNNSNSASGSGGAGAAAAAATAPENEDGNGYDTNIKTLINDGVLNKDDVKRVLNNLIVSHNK
Procedure, shortened: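 Yeast transcription factors, full-length or as DNA-binding domains, were expressed with a GST tag using PURExpress in vitro transcription/translation. At about 100-200 nM they were applied to universal all-10-mer Agilent arrays, double-stranded by primer extension on fresh or once-stripped slides. Fluorescent anti-GST detected bound protein, and masliner normalised the scans. E-scores for ungapped eight-base words, pooled with reverse complements, came from the Universal PBM Analysis Suite.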

| Sequence | PBM E-score |
| --- | --- |
| GCGGCTCC | -0.325 |
| AACGTACA | 0.197 |
| CGGCCGGC | -0.31 |
| GGTAACTA | 0.135 |
| CAGGAAAG | 0.432 |
| CCTAAAAG | 0.223 |
| CAAGGCTG | -0.0186 |
| GGCAGTCA | -0.0543 |
| CGTGCGTC | 0.0502 |
| CATTCACC | 0.0164 |
| ACGCGTGA | 0.157 |
| ACTGTGGC | -0.117 |
| AACGGCTC | -0.269 |
| AGCTGTCA | -0.0426 |
| AACGCCCA | 0.00502 |
| CAGAAACC | 0.0458 |
| CGTTCGGA | -0.212 |
| CACAGGGA | -0.0113 |
| CTCCACTC | -0.242 |
| CGCCTTAG | -0.139 |
| ACTCCAGG | 0.0384 |
| GCTAGTAA | 0.0707 |
| CAATCTAA | -0.024 |
| AGTGTATA | 0.0776 |
| GAGTTCGC | -0.19 |

| Sequence | PBM E-score |
| --- | --- |
| GACCGGTA | -0.223 |
| AAACTACT | 0.0472 |
| CGCGTGAG | 0.00628 |
| AGCGAGCT | -0.106 |
| AGGTTCAC | 0.0242 |
| CACAGGCA | 0.482 |
| CGTTGATC | 0.198 |
| AAAGATGT | 0.116 |
| CCTAGCCC | -0.261 |
| GAGGAGCC | -0.0818 |
| ATATCGCG | 0.00295 |
| AACGGAGA | -0.0586 |
| GCATCAAA | 0.0378 |
| AAGACTAC | 0.0545 |
| CCACGTGC | 0.106 |
| GACTGGCC | -0.333 |
| ATCCAAGC | -0.159 |
| CATCTACA | 0.262 |
| AAGCAAGT | 0.0738 |
| CCCACTAC | 0.0263 |
| ATAGACTA | 0.0348 |
| GTGGTCGA | -0.203 |
| ACAAATCC | -0.118 |
| CCGTAAGC | -0.243 |
| GGGTCATA | -0.0102 |

| Sequence | PBM E-score |
| --- | --- |
| AACACGGG | 0.305 |
| CCACGTGG | -0.352 |
| CACCTTGA | 0.00659 |
| ACCCACGC | -0.0754 |
| TTCGAGAA | -0.0831 |
| CCTCGCCA | -0.221 |
| GGCGGCTA | -0.234 |
| AGATCCTA | -0.107 |
| AGACGCAC | -0.164 |
| CGCTTTCC | 0.0246 |
| CAGCCAAA | 0.0214 |
| AAGTGGTG | -0.133 |
| CCGAGTCG | -0.246 |
| ACACTCAC | -0.0219 |
| ACTCTTAA | -0.0394 |
| ACTCATGC | -0.164 |
| TAACGGCA | -0.0443 |
| AACCTGCG | 0.0347 |
| ATAACCGC | -0.0312 |
| AACCCTTG | 0.0611 |
| ATCAGGCG | 0.0225 |
| AGCTAATA | 0.0927 |
| CATCGGAA | -0.0362 |
| AATGCACA | 0.193 |
| GAGTACAC | 0.209 |

| Sequence | PBM E-score |
| --- | --- |
| CTAGGTTA | 0.0412 |
| GTGGAAAC | -0.176 |
| CATAAACA | 0.158 |
| ACAGGTCT | -0.243 |
| AAATTGAG | -0.00014 |
| ATTAGCGG | -0.112 |
| CGTTTAGC | -0.0577 |
| GACTGGAC | -0.24 |
| CTAGACTA | -0.24 |
| CTAGGGGC | -0.293 |
| CTTAAACA | -0.00812 |
| GCCAGTAC | -0.0423 |
| CGCAACCC | -0.0416 |
| CTGTCAGC | -0.305 |
| ATCGAGGG | -0.206 |
| ACTACTGG | -0.0803 |
| CCTCATCG | 0.00434 |
| CGAATGCC | -0.109 |
| GAGGTAGA | -0.00895 |
| CTTTAGTC | -0.152 |
| ATGCCGCG | -0.133 |
| GATTAGAA | -0.0329 |
| CATGTACA | 0.387 |
| CCGTTTAC | 0.214 |
| CTTCAGAC | -0.049 |

| Sequence | PBM E-score |
| --- | --- |
| CTATGTTA | 0.329 |
| ACTATGCG | -0.0757 |
| GCGTACAA | 0.146 |
| CACGGCTC | 0.0397 |
| GGGCAAGA | 0.0525 |
| ACTCAGCG | 0.00128 |
| CTCGCATC | -0.165 |
| AGCATGAA | 0.0148 |
| AATGGTCT | -0.176 |
| ATGACCTC | -0.242 |
| CTATTTGC | 0.0068 |
| GAGTAGGA | -0.0438 |
| AAGATATC | -0.189 |
| CAACTAGA | 0.0435 |
| CTTATATA | 0.00666 |
| AAATTACA | 0.365 |
| CGCACTTC | -0.213 |
| GCGGCTTA | -0.229 |
| GTCAAATA | 0.0321 |
| CCTCGTTA | 0.176 |
| AATTGGCG | -0.044 |
| CCGTGACG | -0.056 |
| AACTGCGC | -0.045 |
| AGGGGAAA | -0.00744 |
| ATTACTCC | 0.074 |

| Sequence | PBM E-score |
| --- | --- |
| AAGATTGT | 0.126 |
| AAGATTTG | -0.0599 |
| CAACGTCC | -0.0728 |
| GTAGCCAC | -0.169 |
| GATGATGA | -0.243 |
| CTAGCGCC | -0.116 |
| ACCACACG | 0.245 |
| GCCTGGTA | 0.129 |
| CATGGAGG | -0.0382 |
| GGTCTAAC | -0.21 |
| CTTTCAGC | -0.194 |
| GCCGAGAA | -0.133 |
| AGTTTCTA | -0.0478 |
| CAAGCACC | -0.00018 |
| GACTCGAC | -0.113 |
| CTTACCTA | 0.175 |
| CTCCAAAA | -0.179 |
| CGGCTATA | -0.0444 |
| AACCCCTT | 0.139 |
| TCGATTAA | 0.183 |
| AGTGCGCC | -0.0847 |
| ATTTGGTC | 0.00352 |
| ACATAACC | 0.151 |
| CAGCGTGG | -0.126 |
| CCTTTTGA | 0.214 |

| Sequence | PBM E-score |
| --- | --- |
| ACGCATCC | 0.025 |
| CACTACCA | 0.00427 |
| AAGTGTGC | 0.1 |
| GCTGTTAC | -0.0841 |
| GTAGAGAC | -0.0205 |
| AACCAACT | 0.0514 |
| GCAGGGCA | 0.0868 |
| ACGCTCAG | -0.226 |
| AAAACATG | 0.351 |
| CAGTTACA | 0.145 |
| AGCATAAT | -0.0134 |
| GCCCTCTA | -0.212 |
| GCGATTCA | -0.185 |
| AGCTGATC | -0.17 |
| CTCTCGAC | -0.285 |
| AGTGAATC | -0.17 |
| AAGGACCT | -0.0503 |
| CGGTTAAG | 0.00195 |
| CCGATCTC | -0.261 |
| CGGTACAG | 0.00419 |
| CGATGACG | -0.139 |
| GCCAGTCA | -0.159 |
